Measurements as given in PubChem BioAssay AID1345082 (National Center for Advancing Translational Sciences (NCATS), 2018).
Hit rate of the full screen: of about 94,000 compounds, about 4,000 (4.3%) were called active. Inconclusive means that the source gave no clear call. Such entries were picked first, then a sample of the others. The call rests on the fitted dose curve; in most records, active means well fitted inhibition curve with a large enough effect; inconclusive means small, poorly fitted or top-dose-only effect; inactive means no such curve, though single readings can be large or run the other way. Potencies of inconclusive entries are doubtful fits and often do not repeat.

Test: Cytotoxic Profiling in NIH 3T3 Cell Line of Diverse Libraries Using Quantitative High-Throughput Screening; further: nearly all actives have a fitted effect of over 55% in size
Conditions: NIH 3T3 viability, CellTiter-Glo ATP luminescence, 48-72 h; series mostly up to 96.7 µM
How it was run: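 NIH 3T3 cells at 400 cells/well received 23 nL of compound by pintool and were incubated 48 or 72 h at 37 °C. Viability was read as ATP-coupled CellTiter-Glo luminescence.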
Potency means the concentration at half of the fitted maximal effect; tags describe the fitted curve by direction and shape.

SMILES | Potency
CCc1nc2c(c(-c3ccc(O)cc3)n1)CCN(Cc1ccc(OC)cc1)CC2 | inactive
CCOc1ccc(C2Cn3nnc(-c4nc(-c5ccsc5)no4)c3CO2)cc1 (stereo unspecified) | inactive
CC(C)C[C@@H]1N[C@H](C(=O)NC2CC2)Cc2cn(Cc3nccn3C)c3cccc1c23 | inconclusive: 112 µM [inhibitor, partial curve, poor fit]
CN(C)c1cccc(-c2nccc3c(=O)cc(N4CCOCC4)oc23)c1 | inconclusive: 3.55 µM [inhibitor, full curve, poor fit]
Cc1cnc(CCNC(=O)c2ccc(C#N)cc2)n1C1CCCC1 | inactive
CC(=O)Nc1ccc(CN(C)Cc2ccccc2C(F)(F)F)cc1 | inconclusive: 79.4 µM [inhibitor, partial curve, poor fit]
O=C(NCc1nnc2ccc(-c3ccccc3)nn12)c1cccc(Br)c1 | inconclusive: 50.1 µM [inhibitor, partial curve, poor fit]
O=C(CCC(F)(F)F)N1CCC(Oc2cnc3c(ccn3-c3cncnc3)c2)CC1 | inconclusive: 7.94 µM [inhibitor, full curve, poor fit]
Cc1oc(-c2cccc(Oc3ccccc3)c2)nc1CN1CCC(C#N)CC1 | inconclusive: 79.4 µM [inhibitor, single point]
Cn1cc(-c2cccnc2)c2nc(COc3ccccc3)cn2c1=O | inconclusive: 79.4 µM [inhibitor, partial curve]
Cc1ccc(-c2nc(C3CC(=O)N(C4CCCCC4)C3)no2)cc1C (stereo unspecified) | inconclusive: 44.7 µM [inhibitor, partial curve, poor fit]
O=C(NCc1cccs1)C1CCCN(c2nccc(Nc3ccccc3F)n2)C1 (stereo unspecified) | inconclusive: 50.1 µM [inhibitor, partial curve, poor fit]
Cc1cc(-c2cccc(COc3ccc4c(cnn4CC[S+](C)(=O)[O-])c3)c2)ccn1 | active: 25.1 µM
CCc1cccc(-n2nnnc2N2CCN(C(=O)Cc3ccc(C)c(F)c3)CC2)c1 | inconclusive: 50.1 µM [inhibitor, partial curve, poor fit]
COC1CCN(C(=O)COc2ccccc2)CC(=O)N(C)c2ccccc21 (stereo unspecified) | inconclusive: 70.8 µM [inhibitor, single point]
Cc1ccc(C(=O)N2CCC3(CC2)NC(=O)N(c2ccc(F)cc2)N3)s1 | inconclusive: 44.7 µM [inhibitor, partial curve, poor fit]
Cc1ccc([S+](=O)([O-])N2CCC(n3cc[nH]c3=O)CC2)cc1 | inconclusive: 112 µM [inhibitor, single point]
Cc1ccc(NC(=O)C2CCN(c3cc(C(F)(F)F)ncn3)CC2)cc1F | inconclusive: 35.5 µM [inhibitor, partial curve]
C=CCn1cc(CN(Cc2ccc(SC)cc2)C2CC2)c(C)n1 | inconclusive: 35.5 µM [inhibitor, partial curve]
O=C(C1CCCN1C(=O)Nc1ccc(Cl)cc1)N1CCC(N2Cc3cccn3C2=O)CC1 (stereo unspecified) | active: 28.2 µM
Cc1cc(Cl)ccc1OCCN1CCN(C(=O)[C@H]2CCC[C@H](O)C2)CC1 | inconclusive: 22.4 µM [inhibitor, full curve]
O=C(NC1CCCCC1)C1CCc2nnc(-c3ccccn3)n21 (stereo unspecified) | inactive

SMILES | Potency
O=C(c1cc2c(s1)CCC(C(=O)N1CCN(C3CCCCC3)CC1)C2)N1CCCCC1 (stereo unspecified) | inconclusive: 50.1 µM [inhibitor, partial curve, poor fit]
COc1ccc(C(=O)NC2CCN(c3cc(-c4ccc(Cl)cc4)[nH]n3)CC2)cc1 | inactive
COc1ccc(N2CCOC3CCN(CCCc4ccccc4)CC3C2=O)cc1 (stereo unspecified) | inconclusive: 112 µM [inhibitor, single point]
CN1CCCN(S(=O)(=O)c2ccc3c(c2)OCCO3)c2ccccc21 | inconclusive: 31.6 µM [inhibitor, partial curve]
CC1(C(=O)NC2CCN(Cc3ccccc3)CC2)CCCCC(=O)N1 (stereo unspecified) | inactive
CN(C)c1cccc(-c2cnc(Nc3cnccn3)c3c2CCO3)c1 | inconclusive: 56.2 µM [inhibitor, partial curve, poor fit]
COCc1cc(C[C@@H]2CC[C@H](O)[C@@H](CNCc3ccc(Cl)cc3)O2)no1 | inactive
N#Cc1ccc(CN2CC3(Cc4ccccc4C(=O)N3)C2)cc1 | active: 35.5 µM
O=C(NCc1ccccc1)c1ccccc1OC1CN(Cc2cccnc2F)C1 | inconclusive: 50.1 µM [inhibitor, partial curve, poor fit]
Cc1cc2ncc(C(=O)NC(C)CCc3ccccc3)cn2n1 (stereo unspecified) | inconclusive: 63.1 µM [inhibitor, partial curve, poor fit]
CC1=C[C@@H](CNS(=O)(=O)c2cccc(C#N)c2)[C@H](C(C)C)C[C@H]1CC(=O)NCc1cccnc1 | inactive
Cc1nn(C(=O)CCC(=O)N2CCC(Cc3nc(C4CCOCC4)no3)CC2)c2ccccc12 | inactive
COc1ccc(-c2nc(C3CC3)nc3c2CN(C(=O)c2ccccc2)CC3)cc1 | inconclusive: 14.1 µM [inhibitor, partial curve, poor fit]
COc1ccc(CN2Cc3cc(NC(=O)c4c(F)cccc4F)ccc3OCC2=O)c(OC)c1 | inconclusive: 44.7 µM [inhibitor, partial curve, poor fit]
O=C(O)c1ccccc1C(=O)N1C[C@@H]2C[C@H]1C(=O)N(CC1CC1)c1ccccc1O2 | inactive
COCCOC1CCNCC1 | inactive
O=C(NCc1ccc(F)cc1)c1cn2cc(-c3cccc(C(F)(F)F)c3)sc2n1 | inconclusive: 79.4 µM [inhibitor, single point]
CC(C)c1ccc(NC(=O)c2ccc(CN3C(=O)NC4(CCOCC4)C3=O)cc2)cc1 | active: 39.8 µM
COCC(=O)NC1CCN(c2ccc3nnc(-c4ccccc4)n3n2)CC1 | inconclusive: 50.1 µM [inhibitor, partial curve, poor fit]
Cc1cccc(C(=O)N2CCC3(CC2)OCC(C(=O)N2CCCC2)N3C(=O)c2cccc(C)c2)c1 (stereo unspecified) | inactive
COc1ccc(-c2cc(N3CCCC(NC(=O)c4ccc(F)cc4Cl)C3)n[nH]2)cc1 (stereo unspecified) | inconclusive: 50.1 µM [inhibitor, partial curve, poor fit]
Cc1cc(C)c(CN2CCC3(CC2)Cc2ccccc2CNC3=O)c(C)c1 | inactive

SMILES | Potency
Cc1ccccc1N1CCN(C(=O)c2cc3cn(C4CC4)cc3s2)CC1 | inconclusive: 70.8 µM [inhibitor, partial curve, poor fit]
Cc1cnc(C2CCOCC2)n1C1CCCN(C(=O)CCc2c[nH]c3ccccc23)C1 (stereo unspecified) | inactive
Cn1cccc1CN1CCC2(Cc3ccccc3CNC2=O)C1 (stereo unspecified) | inactive
CC1(C)[C@H](Cc2cc(CC3CCCCC3)on2)C[C@@H]1NC(=O)C1CCC1 | active: 39.8 µM
O=C(NCc1ccccc1)c1ccc(-c2cccc3c2CCNC3)o1 | inconclusive: 56.2 µM [inhibitor, partial curve, poor fit]
Cn1cccc1C(=O)N1CCCN(Cc2ccncc2)C(c2ccccc2)CC(=O)NCC1 (stereo unspecified) | inactive
Cn1nccc1-c1ncc2c(n1)OCCN(Cc1ccc(F)cc1F)C2=O | inconclusive: 25.1 µM [inhibitor, full curve]
COc1ccc(OC)c(NC(=O)CC2=C3CCCCC3N(Cc3ccc(F)cc3)C2=O)c1 (stereo unspecified) | inconclusive: 44.7 µM [inhibitor, partial curve, poor fit]
O=C(NCc1cccs1)c1csc(N2CCN(c3ccc(F)cc3)CC2)n1 | inconclusive: 39.8 µM [inhibitor, partial curve, poor fit]
Cc1cccc(OCCc2noc(C3CCCCN3)n2)c1 (stereo unspecified) | inactive
O[C@@H]1C[C@@H](c2nc(-c3ccc4c(c3)OCO4)no2)N(Cc2cc3ccccc3o2)C1 | inactive
COc1ccc(F)cc1Nc1cnc2ccc(N(C)Cc3cccnc3)nn12 | inconclusive: 44.7 µM [inhibitor, partial curve, poor fit]
O=C(C1CCCN(c2nc(-c3ccccc3)nc3c2CCC3)C1)N1CCNCC1 (stereo unspecified) | inconclusive: 89.1 µM [inhibitor, single point]
Cc1cccc(NC(=O)N2CCCCCC2CN2CCc3ccccc3C2)c1 (stereo unspecified) | inconclusive: 56.2 µM [inhibitor, partial curve, poor fit]
CNC(=O)c1cc(C2CC2)nc2onc(C3CCCN(C(=O)c4ccccc4F)C3)c12 (stereo unspecified) | inactive
COc1ccc(C(=O)NC2CCN(c3ccc(=O)n(C)n3)CC2)cn1 | inconclusive: 35.5 µM [inhibitor, single point]
CN1CC(=O)N(c2ccccc2)Cc2c(NCCOc3ccccc3)ncnc21 | inconclusive: 28.2 µM [inhibitor, full curve, poor fit]
CSc1ccc(-c2noc(-c3nnn4c3COC(c3ccc(C)cc3C)C4)n2)cc1 (stereo unspecified) | inactive
C[S+](=O)([O-])N1Cc2ccccc2CC2(CCCCN2CCc2ccccc2)C1 (stereo unspecified) | inconclusive: 70.8 µM [inhibitor, single point]
O=C(NCc1ccccc1F)c1ccc2c(c1)CN(Cc1cc(F)c(F)c(F)c1)CCO2 | inconclusive: 25.1 µM [inhibitor, full curve]
O=C1COc2ccc(-c3cc(F)cc(F)c3)nc2CN1Cc1ccccc1 | inconclusive: 89.1 µM [inhibitor, partial curve, poor fit]
CC(=O)c1cccc(NC(=O)Cn2nc3c(cc2=O)CN(C(C)=O)CC3)c1 | inconclusive: 14.1 µM [inhibitor, partial curve, poor fit]
